Measured values as given in the RNAGym collection of RNA variant scans (doi:10.1093/nar/gkz1192).
The source gives no read counts; variants with many changes may rest on few reads.

B1: CPEB3 Ribozyme (parent)
chain: UAACAGGGGGCCACAGCAGAAGCGUUCACGUCGCAGCCCCUGUCAGAUUCUGGUGAAUCUGCGAAUUCUGCUGUAUAUCUC

Variants of: B1
Experiment: self-cleavage, relative activity (ratio to wild type); higher = more cleavage; in vitro, sequencing
Summary of the method: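 Libraries of CPEB3 self-cleaving ribozyme mutants came from rounds of error-prone PCR and carried barcodes, which DNA sequencing matched to variants. In vitro transcription used T7 RNA polymerase at 37°C for 5 hours, with a further 15 min in DNase I before EDTA stopped the reaction; the ribozymes cleaved during both steps. The RNA was reverse transcribed with template switching and sequenced on Illumina. Relative activity is the cleaved/total read fraction of a variant divided by that of the unmutated ribozyme, averaged over three batches with at least 5 reads.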

Variant	self-cleavage
C11A A21G U25C C40U A65G	0.05
G10A A21G U25C U31C U51C U60C	0.03
G10A G30A U43G	0.04
C11A C12U U31A U48C U51A C62U	0.14
G10A U26C A28G C40U A57G U69A	0.05
G10C G36A A65G	0.07
G10U C14U G19U A28G G42A U58C	0.11
G10A U25G A28G C62U A64G	0.04
G10A U60C U72C	0.15
G10A A21G A28U U41G U51A A57U U69A	0.13
G10A A20G U26C A57G	0.07
G10A U49A A65G U74C	0.06
G10C U43C U67A	0.07
G10A U25C A35G	0.16
G10A U31C U54A U60C A64C U74C	0.07
G10C A21G U51A	0.05
G10A U41C U51A	0.52
G10U A13G A15G A45C U54C A64G	0.27
G10C U25C U43A U51A U60G U78C	0.06
G10C U76C U80C	0.24
G10U A28G C44U	0.32

Variant	self-cleavage
G10A A28G U72C	0.38
G10C U51C A57U	0.14
C11A C40A A45U U76A U80A	0.03
G10U A21G U51A U66C	0.07
G10A A28U A47G U76A	0.09
G10A U67C U74C	0.04
C11A A28G U43A A75U	0.12
G10A U25C G30A U41C A57G A75G	0.12
G10U C11A A13U U41C A64G	0.24
G10C U26C U51C	0.2
G10C U43C A45G C59U	0.17
G10U U25C C68U U72A	0.08
G10U U51A G63A	0.14
G10U A45U U60G C71A	0.11
C11A G24A U51A U54A	0.06
G10U U25C G30A A56G U66C	0.08
C11A A13U A15U A18C C59A U80A	0.07
G10A U26A A47G U76C	0.05
G10A U43A A57G	0.09
C11A C14A U25A U41C A45G A47G	0.06
G10U A47G A64G G70C	0.07

Variant	self-cleavage
C11A U25C U26A C71G	0.06
C11A U49C A77G	0.11
C11A A28G U58C U78C	0.44
G10U A13U A56G U58A C81U	0.05
G10A A35C U80C	0.14
C11A A15G C23U U43G U67A U78C	0.03
G10A C40A U60C A65G	0.14
G10A U43C U54C U74C	0.19
G10C U41C U58A	0.09
G10A C39A G63A	0.04
G10C U41A A64G	0.19
G10C G53C A56U	0.12
G10A U25A U60C U66A A75U	0.28
G10A U26C C38U	0.28
G10C A18U U31A	0.06
G10U U26C A28G U51C U76A	0.08
G10A G36A U43C	0.05
C11A A15G G33A U41A U69C	0.08
G10U A13U A35G U43A	0.47
G10C U41A U58A	0.21
C11A A21G G55U A56G A65G U67C	0.04

Variant	self-cleavage
G10C C17U A28G G30A	0.06
G10U G19U G42A A45G	0.14
G10U G30A A35G G55C U58A C71U U80A	0.03
G10A U25C U67A G70A	0.05
C11A A13G C44U	0.04
G10C U25C U31C U72C	0.05
G10A G19A U31A A45G U72C C79U	0.02
G10U U25C U31C U41A U48A U49C	0.05
G10U U25A U26A G53A U67C	0.04
G10C U31C U54C U60C U66C U69C A77G	0.08
G10A A28U U41C U49C	0.12
C11A U49C A75G	0.05
G10C A18U U31C A47G A65G G70U U72A	0.03
G10C U67C U74C A75U	0.1
G10U A28G U31A U80A	0.05
C11A C37A C39A A64G U78C	0.03
G10U C11U U48C	0.34
G10U A15U U31G U54A	0.21
G10C A64G U72A	0.16
G10A C14U U25C A56G U58A	0.13
